# Test results taken from paper PMC10726135.
# This is one part of the list. At the low end of the ranking, values are background and their order means little. The protein was read in a cell extract, so binding may be indirect.
# Target: T1, HNF4alpha2 (COS-7 nuclear extract) (UniProt P41235)
# T1 sequence: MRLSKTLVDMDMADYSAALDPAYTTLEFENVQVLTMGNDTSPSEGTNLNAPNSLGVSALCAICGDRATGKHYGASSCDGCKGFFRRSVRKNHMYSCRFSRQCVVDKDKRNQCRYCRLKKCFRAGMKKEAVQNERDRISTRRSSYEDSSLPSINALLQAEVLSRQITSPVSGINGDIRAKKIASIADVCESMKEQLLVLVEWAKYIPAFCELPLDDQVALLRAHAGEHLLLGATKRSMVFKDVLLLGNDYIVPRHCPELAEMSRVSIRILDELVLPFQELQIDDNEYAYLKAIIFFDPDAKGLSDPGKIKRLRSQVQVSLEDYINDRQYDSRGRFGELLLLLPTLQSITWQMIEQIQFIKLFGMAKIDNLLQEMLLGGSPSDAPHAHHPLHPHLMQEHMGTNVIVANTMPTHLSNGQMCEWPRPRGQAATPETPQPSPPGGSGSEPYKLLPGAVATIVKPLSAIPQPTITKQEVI
# Test: protein-binding microarray
# Conditions: COS-7 nuclear extract on double-stranded Agilent 4x180k PBM; binding buffer, salt, pH and temperature not given; high values mean tight binding; double strand, one strand shown; sequences stand for … in …GCCTAGGGAGATTAGAGTATCGGTCGA
row,Sequence,binding signal (log2 normalized intensity)
1,ATTAGCTTCTGTTCAGGAGTTGTCTGTCCA,1.1
2,CACAGAGGGAAATGCAAACATTTCTGGAAT,-1.22
3,ACAGATGGTGTTAAATCCTATCCTAGGGTT,-1.08
4,GATTAGAAGATAGCTTTAAAGACCAAAGAT,-0.801
5,ATTAGTAGCAATACTTTCAGCTAGCTGAGT,-1.14
6,GATTAAAGGAGAACTGAGTAGGAGAATGTT,-0.329
7,AAGCCCAAGGGATCGTCCAAATACCTAGCT,-1.22
8,CCCCCAGAGCCCCGTGTCTCCCTACCTCTG,3.68
9,GCAAGATTAAGATCAAAGAATTCCTAATAA,-1.26
10,GAATTTTCTCATCCGCTAATGACACCAGGG,-0.855
11,CAAGAATTTAAGAGAACTAGAGATAAGGTA,-0.654
12,CTCTAACCACTTTGAAATAGTGACCTCTGC,4.36
13,TATATTTGTGCAAGAATGCGTCATCCGCAT,0.493
14,ATCTAGAGACACTATGTGCATTCCAAGGCT,-1.1
15,GAGAGGGATAAAAGGGGAAAAGGTCAAATA,2.32
16,GCATTTCTGGACTTGGATCAGCCTGATTGA,1.94
17,AAAGGTGAGTATGAGTAGGCTGTAGAGGAG,-0.455
18,TCTCTCACCAGAAAAATGTACATGTGCAAA,1.52
19,CTTGCTAAGTATAAAGTTAAGACCTACATT,-1.16
20,CGACCTCATGAGTAGAGAGCAATCATGGGC,-1.17
21,GGATTCAGATCCAGTGGACTCTCTGTTTGA,2.63
22,AACTCCTTGAGAAGTACAACTTCAGCAATG,-1.16
23,TCTAGGAGCCTGGACATTTGCCACCAATGC,-1.08
24,AAAGAAGCAAAGGTTGGCTAAAGATAACCT,-1.22
25,TGAGACATTTTGTCTTTTCTCCCCTGACTA,2.63

row,Sequence,binding signal (log2 normalized intensity)
1,GGAAAGCACAGCTGATTGCTCAACCCAAAG,-1.11
2,AGGCCCACACCCCTGGGGAAGGCAGGTCTC,-1.09
3,TGGGCAGGCTCCCTCCCTGGGAGGCAGGAC,-1.16
4,ATCTGCGAAATGGGGATAAACACCCCCATC,-0.827
5,TCACAGGTTCCAGCATGGACTTCACAGCCT,-0.535
6,ACCTGAGAACAAACAATGGTTTGGGACAAA,-0.924
7,TCCCCCAACTTACTTAGTGGCTCCTAGAAT,0.316
8,CCTGAGAGGGCTCAAGGTCTGCATGCCATT,-1.28
9,CCCCCCAAGTTGAAGCCATCCTCCCACCTC,5.83
10,GGTCCGGCCCGACTCACGACCCCGCGGGAC,0.0393
11,AAGGTTATTATATTGTGGGTTCTTGCCCTT,2.97
12,ACAAGCCAGGTGTGCAGAGAGCAAACGAAC,-1.03
13,ATATGCACTTGCCCTTTGGTAATCCTGCTC,2.44
14,CTGACTGTGTCTGTTTACCCACTTGGGGTT,1.44
15,TGTGCCGGGTATGTGGGGCGTGTGTTAGAC,1.84
16,GTTTTGTCTTCTGTTTGCAAATGGATGAAT,2.03
17,CCAGTTCTTTTGACCTTTGCCTCATTCTTA,6.03
18,AAAGGGACTCATCTCCAAACGAGACTTTGG,1.6
19,TGTTGCGTAAGGGTCTGACCTGGCTGCTTG,0.997
20,TATCTTTGGAGAATGCCTTTTGTGTAGGAG,1.64
21,CAGTGTGTTGCATGCCACAGCGCCCTCAGT,0.532
22,TTTGGCTGTAGAAAGACTAAAGTTCAGGAG,1.6
23,TGTCTCAGCCCAAGATCAAAAGGCAGAGAG,-1.16
24,TCGCCCTCCGTCGTGGCCTGGCGTGGATTC,0.689
25,GGAGGTCTGCACAAAATACAAGTCGTAAAG,-1.07

row,Sequence,binding signal (log2 normalized intensity)
1,ATTGCACCCTTCCCTAAGATTTATCCCAAA,0.83
2,GAAGTATTTATTGAGCACACACTCTTCGAA,-1.07
3,CAAAGGCATTTCTGGACTTGGATCAGCCTG,1.97
4,AGGAGGCTGAAGACTTTGCACCAAGGAGAC,-0.825
5,AGTTATATCTTACCTCCTTCTCCCCCATGC,4.87
6,GATAAGGATCTAAGAACTAACATGGATCTA,-0.974
7,AGGACTTTGTGATTACATTGAGTCCACTGA,1.87
8,CACAGACTTTGGAATCACAATGATAACAGC,0.158
9,TGGGTAAACAGACCTCTCTCTCCCCAGACA,3.24
10,CCAGCGCAGGGGCTTCTGCTGAGGGGGCAG,-0.944
11,TCTTATCTGGGGGCCATTCCTCTATCTCCC,0.336
12,TGAGCATTCCAAAAAGCTTTTGTCATGACC,1.72
13,TGAGGTGCAGGACAAAGTGTGCACTTTGCA,2.07
14,TGAGGGAGGGCACAGGCAACAGAGGAGCAT,-1.17
15,AAAGAAGCTACTAGCAAATCTGCCCAACCT,-1.1
16,TGGAGCCAGATGCACACAGGATCAATAAAA,-1.11
17,TTACATGGATTAGTCCCTTTTCACGCTAAG,-0.735
18,ACTCTCACCTTGGGGGCTGCTGGGGGCACA,1.08
19,TTTCCTTCTAGCTCCCCAATAGACATAACT,2.54
20,TCCATAGTTCCGAGTTCCCTCGATTATTTC,-0.843
21,CTCTGCAGTAACTGTCATGGATGACCTCTT,4.38
22,CAGCAAACAGGTCCTGCTGGTTTGCCATTT,0.581
23,CAAACACAACATTGAAAGCGATCTTTGCAT,-0.369
24,CCGGACACAAAAGCTGCTGCCAAGCGTCAG,-1.1
25,AATACGACCTTTGGACAGGGTGACGTCATT,6.27

row,Sequence,binding signal (log2 normalized intensity)
1,TAAGTATAAAGTTAAGACCTACATTAAGAC,-1.16
2,TTCGGGTTTTCGCAGCAAGTTACACAAGTA,-0.724
3,GACACCAAACAGACCTCCCCCAACTTACTT,3.5
4,GCTGTTTCCAAATATCTGACTGTAAATTTG,0.229
5,TTACCTGAAATGAGACCAAAGTATTTAACC,0.872
6,AATGGTGGGATAGGAGACATGAAGGACATA,-0.721
7,AGGCTCTTAGCAGAAGCCCTCCTGGACATT,1.64
8,GAGCCCTCCCCTTGTCTGATAAGATTCAGA,3.13
9,TCTTGGAATGTTGAACCTTTCTTTGTCTTT,2.24
10,GGTGACAGTATCAAAGTCCCCAGATAAGAC,3.19
11,TCACCACTTTTGCAATGTTTCCAAACCCCT,2.72
12,TATGTGGCATTTCAAAGGAGGAGGCCTAGG,-1.03
13,CCTTGGCCTGCTCCTTGGAAGTCGCCGTGA,-1.05
14,ATGCCTGATAAAGGGGGCAAAGGGCATGGG,4.85
15,TGGGCCTGGCTGAGCCTGGGCCGCCAAACT,-1.13
16,AGCTGCTCTAAGAATGCAGAAACAAATACA,-1.08
17,AAGTCCAACAGGGTTAAAAGCAAACCAAAA,-1.14
18,GTAGACAATAGGGCAGAGGAAACAAACAGA,-1.15
19,TCATCTGGTGGCTTGAGTTGGAGAAGAGCA,0.32
20,ATAGTGATAAGGATCTAAGAACTAACATGG,-1.15
21,GCAGTGGGACAAAGGTCACAGGAAAGGGAC,4.13
22,GAACAGTCCTACAAATGATCAAAGGTTGGT,2.98
23,TCTGCCATTGTCGTGGTTGTAGAAAGCAGC,0.981
24,GATCATAATCCCTTATGACGGACAAAGGGC,1.74
25,TTTTCTTGGACTTTGGTCATCCTTTACTTT,6.04

row,Sequence,binding signal (log2 normalized intensity)
1,CACCTGGTTCCTTGCAAGATAAGGGTCAGC,2.3
2,ACCCTGGTCTTTGCCCTTTCCTAGACGTAA,2.45
3,GAGAGGGTTAAAAACCAGAATGACAAGCTG,-1.21
4,AGGCAGGGGATGAGATCTGAAGATAAATGC,-1.07
5,AAGAAAGAGACCTTTACCCTGACCTGTCAA,2.82
6,CCCTTTAGTGCCTGGATCTTGGAACAGGTC,1.6
7,TGTGCTCCCGACTGCTCCACCAGCGCGTGC,-1.2
8,TTCTAAAAATAGCCTTACTTTAAAGCTGAT,-0.582
9,TTACAGATAAGCAGAAGGTCAGGTGAATCA,-1.07
10,CCAGGAGCCCCACGTTTATCTTGGAACCTC,1.4
11,TACAGGGAGCTATTCTTTAACCAGAGTCTA,-0.896
12,CTGACAAGTATCTCGGTCAAACCTTTGACC,5.77
13,CCATCCCAGGTCCACAGTGCACATTCCAGA,0.202
14,TCAGATTGTAGCCTCATTTCACCTTTGGTC,5.58
15,TAGCCAGACCTGTTCCTCTGCCCCTCATCG,1.7
16,GCTCCCGCCTGACCTGGCCCCTGAGGGTGC,1.24
17,GCCTGCTCCTTGGAAGTCGCCGTGAGGTTA,-0.0732
18,AGATAATCCCCAGCCACGCTCCTCTTATCA,0.929
19,TTACAAAGTATGTTCACAAGGAATTGGAAT,1.55
20,TTGTAGTGTCATTGTTATTTACGGTGGGCA,2.04
21,GAGGTTGAATTCCAAAGGTTATTTTCTTTA,2.55
22,GGAGAGGCAAGTATGGTAAGGTCGACCTTT,6.25
23,TTTCCCCCTATTTCCCTCTGTGCCCGAGCT,3.95
24,TGACTTTCTTCCTATGGGATCAAAGTGCGA,4.63
25,AGAGGACTTCCAAAGCCCCTTTCCACTCTA,0.98

row,Sequence,binding signal (log2 normalized intensity)
1,TGCTCATAATGCCAGGCAGGAAGGAGCCTG,-1.15
2,CACATCCAGATGAGAGCAGAGGCTGGGGCC,-1.12
3,TAACTATGGTCACGCGGCCAAAATGTTCAG,0.22
4,TTTAGAGGATTTACTTATACAGCGTCTAAG,-1.19
5,AGAGTCATCACAATAGGGAAACAGCGAGAG,-1.13
6,CACCAGGGCCTCTGAGATAAGGGTTCAAAC,1.59
7,CAAGACCTCTTTGCGGATAGATATGTTGAA,1.67
8,AGAGACAACCAAGGTTGCAGAGTGTCCCAC,-0.964
9,TGCCCTCTGTCCCATGGTGTACAAGGAGTC,1.46
10,TATCACCTGCCAGCTGTTATGAGTCTGTTG,1.32
11,TAAGCACCCAGAGCCCCACCGTTGTGTAAT,2.21
12,AGACACAGACTCAAGTGAGGAAGGAACTGG,-1.04
13,CTCTCCCCACCCCCAAATCCCCTTCAAGTC,5.43
14,ACACGTGGGACCATGAGTACCAGGTCAAAA,1.37
15,CCTTCCAAAGTCCACCTCAACCTCCCCCTG,5.29
16,CTTCAAACGGGAAGCGAGGCCTCATTGGCC,-1.15
17,TTCAACTGATAAGAAGGGGCCTAGCTTGTA,-1.2
18,CAGGGTGAAATTCAACAGAACTGTTTGAGG,0.113
19,TGTAGAATTATCCAGATCAAGGATTTTTTC,-1.05
20,TCATTGATGAGTGACCTTTGACCTCAGAGA,9.89
